# Experimental data published in PubChem BioAssay AID1159614 (National Center for Advancing Translational Sciences (NCATS), 2016).
# Among all 45,000 compounds or so, about 65 (0.1%) were called active. The call rests on the fitted dose curve; in most records, active means well fitted activation curve with a large enough effect; inconclusive means small, poorly fitted or top-dose-only effect; inactive means no such curve, though single readings can be large or run the other way. This is one part of the list.
# Molecular target: Galactocerebrosidase (Homo sapiens) (UniProt P54803)
# Sequence of UniProt P54803 (P54803 whole entry, looked up): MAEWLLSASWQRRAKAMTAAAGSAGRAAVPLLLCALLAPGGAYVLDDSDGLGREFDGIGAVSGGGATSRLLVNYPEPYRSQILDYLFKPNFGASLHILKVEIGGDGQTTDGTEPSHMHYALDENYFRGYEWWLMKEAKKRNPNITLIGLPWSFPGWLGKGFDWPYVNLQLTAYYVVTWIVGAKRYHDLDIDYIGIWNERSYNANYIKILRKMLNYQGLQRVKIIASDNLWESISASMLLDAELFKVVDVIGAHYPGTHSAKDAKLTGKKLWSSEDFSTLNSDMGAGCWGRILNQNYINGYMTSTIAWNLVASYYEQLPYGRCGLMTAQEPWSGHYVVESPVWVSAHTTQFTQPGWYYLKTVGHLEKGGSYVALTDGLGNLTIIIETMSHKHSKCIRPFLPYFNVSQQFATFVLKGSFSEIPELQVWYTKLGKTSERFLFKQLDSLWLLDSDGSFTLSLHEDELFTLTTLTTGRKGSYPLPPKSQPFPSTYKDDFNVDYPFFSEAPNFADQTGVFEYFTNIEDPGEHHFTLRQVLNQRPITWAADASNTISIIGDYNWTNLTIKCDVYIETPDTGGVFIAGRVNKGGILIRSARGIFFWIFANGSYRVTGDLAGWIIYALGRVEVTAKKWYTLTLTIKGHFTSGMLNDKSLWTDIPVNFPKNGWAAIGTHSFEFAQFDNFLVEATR
# Assay: A Novel Cell-Based Assay to Identify Small Molecules for B -Galactocerebrosidase; further: 0% is about no effect; nearly all actives have a fitted effect of over 65% in size
# Settings: 145M-Twi-hGALC-G270D cells (Twitcher mouse brain line with human GALC G270D), HMU-beta-Gal fluorescence, 48 h; series mostly up to 57.5 µM; activation: at the top concentration
# Outline: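 Brain-derived Twitcher mouse 145M-Twi cells stably expressing human GALC-G270D or wild-type GALC, treated live, then residual GALC activity read by fluorescence of HMU-b-Gal substrate (0.1 mM final) in citrate-phosphate buffer pH 5.2 with sodium taurocholate. Signal increase indicates enhancement.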
row,SMILES,activation
1,N=c1n(CCN2CCCCC2)c2ccccc2n1CC(O)COc1ccccc1 (configuration not stated),inactive: -4.84%
2,CCC(=O)N1CCc2cc(S(=O)(=O)CCC(=O)N3CCN(c4cccc(Cl)c4)CC3)ccc21,inactive: -11.4%
3,CSc1ccc(C(=O)Nc2ccc(-c3nc4ccccc4s3)c(O)c2)cc1,inactive: 14.9%
4,Cc1cc(C)cc(NC(=O)c2oc3ccc4c(c3c2C)C(=O)CC(C)(C)O4)c1,inactive: -3%
5,COc1ccc2c(c1)c1c(c(=O)n(Cc3ccccc3)c(=O)n1CC(=O)NCc1ccc(C)cc1)n2C,inactive: -7.22%
6,CCc1ccc(NC(=O)c2ccc3nc(C(C)C)oc3c2)cc1,inactive: -11.1%
7,CSc1ccc(-c2nc3c(C)cccn3c2Nc2ccc3c(c2)OCCO3)cc1,inactive: -15.8%
8,COc1cc(OC)c(NC(=O)Cn2c(=O)cc(C)c3c(C)nn(-c4ccc(C)cc4)c32)cc1Cl,inactive: 1.23%
9,Cc1ccc(OCc2nnc(SCC(=O)Nc3ccccc3C(C)C)o2)cc1,inactive: -15%
10,CCC1CCc2nc3sc(C(=O)Nc4ccc(C)cc4C)c(N)c3cc2C1 (configuration not stated),inactive: -16.2%
11,COC(=O)Cn1ccc2cc(S(=O)(=O)N3CCCCCC3)ccc21,inactive: -12.3%
12,CCOC(=O)N1CCC2(CC1)OC(=O)C(C)=C2C(=O)NCc1ccc(C)cc1,inactive: -10.6%
13,CCNC(=O)c1ccc(CSc2nc3cccnc3n2Cc2ccc(OC)cc2)cc1,inactive: -48.5%
14,CCCc1cnc2c(c1SCC(=O)Nc1c(C)cc(C)cc1C)c(=O)n(C)c(=O)n2C,inactive: -13%
15,COC(=O)c1ccc(NC(=O)Cn2c(-c3nonc3N)nc3ccccc32)cc1,inactive: -8.97%
16,Cc1cccc(-c2nc(CN3CCCC(C(=O)NCc4ccc(Cl)cc4)C3)c(C)o2)c1 (configuration not stated),inactive: -9.76%
17,Cc1nn(CC(=O)N2CCC(C)CC2)c(=O)c2cc3occc3n12,inactive: -18.1%
18,O=C(NCCc1csc(-c2cccc(F)c2)n1)c1ccccc1C(F)(F)F,inactive: -11.7%
19,CCN(C(=O)CN1C(=O)COc2ccc(S(=O)(=O)N3CCOCC3)cc21)c1cccc(C)c1,inactive: -2.05%
20,COc1ccc(CNC(=O)CCCn2c(=O)c3cccn3c3ccc(F)cc32)cc1OC,inactive: -7.04%
21,Cc1ccc(-n2ncc(C(=O)NCc3ccccn3)c2C2CCN(C(=O)OC(C)(C)C)CC2)c(C)c1,inactive: -14.3%
22,COc1ccc(NC(=O)CN2C(=O)CSc3ccc(S(=O)(=O)N(C)C)cc32)cc1Cl,inactive: -8.79%
23,O=C(Nc1ccc(Cl)c(C(F)(F)F)c1)c1ccc2c(c1)CCN2S(=O)(=O)c1ccccc1,inactive: -15.9%
24,Cc1ccc2occ(CC(=O)Nc3ccc(S(=O)(=O)N4CCCC(C)C4)cc3)c2c1 (configuration not stated),inactive: -16.3%
25,COc1ccc(NC(=O)C2CCN(C(=O)N3CCOc4ccccc43)CC2)cc1,inactive: -13.3%

row,SMILES,activation
1,Cc1ccccc1Cn1nnc2c(=O)[nH]c(C3CCN(C(=O)c4ccccc4Cl)CC3)nc21,inactive: -14.9%
2,CCC1CN(C(=O)NCc2ccccc2)c2cc(C)ccc2O1 (configuration not stated),inactive: -14.1%
3,COc1ccc(NC(=O)N2CCN(S(=O)(=O)c3ccc4c(ccn4C)c3)CC2)cc1OC,inactive: -13%
4,COCCCNC(=O)C(C)n1c2ccccc2c2cnn(C)c(=O)c21 (configuration not stated),inactive: 0.371%
5,COc1ccc(-c2noc(N3CCC(C(=O)Nc4ccc(OC)c(OC)c4)CC3)n2)cc1,inactive: 5.99%
6,O=c1c2cc3c(cc2n(Cc2ccccc2)c(=O)n1Cc1nc(-c2ccccc2)no1)OCO3,inactive: -3.28%
7,COc1ccc(Cl)cc1Nc1cc(C)nc2nc(-c3ccccc3C)nn12,inactive: -12.2%
8,CN(C)c1ccc(C(CNC(=O)c2cccc(C(F)(F)F)c2)N2CCCC2)cc1 (configuration not stated),inactive: -15.6%
9,COc1ccc(Br)cc1CNC(=O)c1cc(=O)[nH]c2ccc(S(=O)(=O)N3CCCCC3)cc12,inactive: -9.01%
10,Cc1cccc(C)c1NC(=O)CN(Cc1ccc(Br)cc1)S(=O)(=O)c1ccccc1,inactive: -13.7%
11,CCCSc1nc(-c2ccc(OC)cc2)cc(-c2ccccc2OC)c1C#N,inactive: -8.72%
12,CN(C)[C@@H](CCOc1cccc2ccccc12)c1ccccc1,inactive: -6.67%
13,CCOC(=O)c1ccc(NS(=O)(=O)c2ccc3c(c2)OCCO3)cc1,inactive: -4.48%
14,CCCC(=O)Nc1cccc(-c2cn3cccnc3n2)c1,inactive: -20.5%
15,Cc1ccc(CNc2ncnc3c2c(-c2ccccc2)cn3-c2ccccc2)cc1,inactive: -16.7%
16,CCOc1ccc(NC(=O)C2CCN(S(=O)(=O)c3c(C)noc3/C=C/c3c(C)cc(C)cc3C)CC2)cc1,inactive: -5.31%
17,CCCCCCCC/C=C\CCCCCCCCN,inactive: -12.8%
18,COc1ccc(OC)c(-c2noc(N3CCN(c4cc(C)ccc4C)CC3)n2)c1,inactive: -11.2%
19,CC(C)[N+](C)(C)CC(O)COc1cccc2ccccc12 (configuration not stated),inactive: -1.22%
20,CCN(CC)c1ccc(NC(=O)c2sc3ccccc3c2Cl)cc1,inactive: 3.9%
21,CCCC(CCC)C(=O)O,inactive: -31.4%
22,COc1ccc(OC)c(CCNC(=O)Cn2ccc3cc(S(=O)(=O)N4CCCCC4)ccc32)c1,inactive: -6.32%
23,CCOC(=O)Cc1ccc(NC(=O)Nc2cc3c(cc2N2CCCCC2)n(C)c(=O)n3C)cc1,inactive: -13.9%
24,CCCn1c(=N)c(C(=O)NCc2cccnc2)cc2c(=O)n3ccccc3nc21,inactive: -8.89%
25,Cc1ccc(N(C)S(=O)(=O)c2nnc(NC(=O)CC(C)C)s2)cc1,inactive: -1.85%

row,SMILES,activation
1,COc1ccccc1-c1cc2nc(C)c(CCC(=O)NCCc3ccc(SC)cc3)c(C)n2n1,inactive: -19%
2,Cc1ccc(C)c(CNC(=O)c2ccc3c(c2)nc2n3CCC(C)C2)c1 (configuration not stated),inactive: -11%
3,CCOC(=O)c1cc(OC(=O)c2ccc(OC)cc2)n(-c2ccccc2)n1,inactive: -2.85%
4,COc1ccc(NC(=O)C(Cc2ccccc2)NS(=O)(=O)c2ccc3c(c2)CCN3C(C)=O)cc1 (configuration not stated),inactive: -8.43%
5,CCOc1ccc(CNC(=O)Cn2ccc3cc(S(=O)(=O)N4CCCCCC4)ccc32)cc1,inactive: 7.3%
6,CCCCOC(=O)c1ccc(NC(=O)CC2NCCNC2=O)cc1 (configuration not stated),inactive: -13.6%
7,COCCCNC(=O)C1CCC(CNS(=O)(=O)c2ccc(OC)cc2)CC1 (configuration not stated),inactive: -15.8%
8,CCOC(=O)c1cc2c(=O)n3ccccc3nc2n(C)c1=NC(=O)c1c(-c2ccccc2Cl)noc1C,inactive: -5.52%
9,Cc1ccc(NC(=O)Cn2c(=O)ccc3cc(S(=O)(=O)N4CCC(C)CC4)ccc32)c(C)c1,inactive: -13.5%
10,O=C(Nc1ccc(F)cc1F)c1ccc2c(c1)CCN2S(=O)(=O)c1ccc(Cl)cc1,inactive: -7.23%
11,COc1ccc(-n2cc(C(=O)Nc3cc(F)ccc3F)c3ccccc3c2=O)cc1,inactive: -7.77%
12,COc1cc(-c2cc3n(C)c(C)c(CCC(=O)NCc4ccccc4)c(=O)n3n2)cc(OC)c1OC,inactive: -10.2%
13,COc1cccc(CNC(=O)C2CCN(Cc3cc4ccccc4n3Cc3ccc(C)cc3)CC2)c1,inactive: -17.8%
14,COc1ccc2oc(=O)c(C(=O)Nc3cccc(C(=O)O)c3)cc2c1,inactive: -8.99%
15,COCCNC(=O)Cn1nc(-c2ccc(C)cc2)c2ccccc2c1=O,inactive: -5.66%
16,Cc1nc2cc(-c3cccc(F)c3)nn2c(C)c1CCC(=O)Nc1ccccc1C(N)=O,inactive: 14.8%
17,Cc1cccc(NC(=O)c2ccc(CN3CC(=O)N4CCCCC4C3=O)cc2)c1C (configuration not stated),inactive: -7.98%
18,COc1cc(N)c(Cl)cc1C(=O)NC1CCN(CCCOc2ccc(F)cc2)CC1OC (configuration not stated),inactive: -13.4%
19,CCCCn1c(CCCNC(=O)c2cccc(C)c2)nc2ccccc21,inactive: -10.9%
20,Cc1ccc2oc(-c3cccc(NC(=O)c4cccc5c(Cl)cccc45)c3)nc2c1,inactive: -3.16%
21,COc1cccc(Cn2nnc3c(=O)[nH]c(C4CCCN(C(=O)c5ccccc5Cl)C4)nc32)c1 (configuration not stated),inactive: -10.2%
22,COc1ccc(CNc2nc(-c3ccc(Cl)cc3)cc(C(F)(F)F)n2)cc1,inactive: 8.73%
23,COC(=O)c1c(-c2ccc(Cl)cc2)noc1N1CCN(c2ccccc2OC)CC1,inactive: -12.1%
24,COc1ccccc1S(=O)(=O)Cc1ccc(C(=O)N2CCN(c3cc(Cl)ccc3C)CC2)o1,inactive: -8.23%
25,CCc1ccccc1NC(=O)COCc1cc(-c2ccco2)on1,inactive: -4.15%

row,SMILES,activation
1,CCOc1ccc(OCC)c(NC(=O)C2CCN(S(=O)(=O)c3ccc4c(c3)CC(C)N4C(C)=O)CC2)c1 (configuration not stated),inactive: -0.507%
2,Cc1ccc(N2C(=O)[C@@H]3CSC(c4ccc(Cl)cc4)N3C2=O)cc1 (some centres not stated),inactive: -13.8%
3,Cc1ccc2occ(CC(=O)N(Cc3ccc(Cl)cc3)Cc3ccco3)c2c1,inactive: -7.32%
4,CCOc1ccc2c(c1)c(=O)c(C(=O)c1ccc(CC)cc1)cn2CC(=O)Nc1cccc(Cl)c1,inactive: 1.13%
5,O=C(NCCc1ccccc1)c1ccc2nc(CCc3ccccc3)oc2c1,inactive: -18.9%
6,Cc1cc(C)c(Cn2c(=O)n(CCC(=O)NCc3ccc4c(c3)OCO4)c(=O)c3ccccc32)c(C)c1,inactive: -2.63%
7,Cc1ccc(-n2c(CCC(=O)O)ccc2-c2cccs2)cc1Cl,inactive: -8.98%
8,Cc1cc(O)c(C(c2ccccc2)N2CCN(c3ccc(F)cc3)CC2)c(=O)n1Cc1ccco1 (configuration not stated),inactive: -14.7%
9,O=C(c1ccco1)N(Cc1cccs1)c1ccc(F)cc1,inactive: -19.3%
10,CC(C)OCCCN1C(=O)c2[nH]nc(-c3ccccc3O)c2C1c1ccccc1F (configuration not stated),inactive: -11%
11,Cc1noc(-c2ccccc2OCC(=O)Nc2ccccc2[N+](=O)[O-])n1,inactive: -23.7%
12,COc1cccc(CNC(=O)c2ccc(-n3c(C)cc4c3CCCC4)cc2)c1,inactive: -9.41%
13,COc1ccc(CNC(=O)c2sc3nc[nH]c(=O)c3c2C)cc1,inactive: -8.41%
14,CCOc1ccccc1N1CC(c2nc3ccccc3n2CCCOc2ccc(OC)cc2)CC1=O (configuration not stated),inactive: -15.4%
15,O=C(NCC1CCN(Cc2cccc(Cl)c2)CC1)Nc1ccc(F)c(Cl)c1,inactive: 2.68%
16,Cc1cccc(OCc2cc(=O)n3c4c(sc3n2)CCCC4)c1C,inactive: -17.9%
17,CCc1ccc(C(=O)CC2(O)C(=O)N(Cc3ccc(C)cc3)c3ccccc32)cc1 (configuration not stated),inactive: -16.6%
18,CC(C)c1nc2ccc(C(=O)NCc3ccccc3Br)cc2o1,inactive: -37.6%
19,CCc1ccccc1NC(=O)c1cc2nc(-c3ccc(Br)cc3)cc(C(F)(F)F)n2n1,inactive: 0.686%
20,CC(C)(C)c1ccc(C(=O)N2CCCC(c3nc4c(nnn4Cc4cccc(F)c4)c(=O)[nH]3)C2)cc1 (configuration not stated),inactive: -13.1%
21,Cc1ccc(-c2cn3nc(N4CCCC(C(=O)NCc5ccc(F)cc5)C4)sc3n2)cc1 (configuration not stated),inactive: -10.8%
22,CCCCOc1ccccc1C(=O)N(Cc1sccc1C)C1CCS(=O)(=O)C1 (configuration not stated),inactive: -0.544%
